Measurements published in the supplement of paper PMC3334620.
The full ranking holds about 33,000 sequences; the median of “E-score (-0.5 to 0.5)” is about -0.013, and the highest 2% start at about 0.3. This is one part of the list.

target: T1, Msn1 (UniProt P22148); assay: PBM E-score (8-mer binding enrichment) (E-score (-0.5 to 0.5)); higher = stronger / more preferred TF binding; most listed sequences are background and not binding sites; details: protein concentration: 200 nM; construct: GST-full length
T1 sequence: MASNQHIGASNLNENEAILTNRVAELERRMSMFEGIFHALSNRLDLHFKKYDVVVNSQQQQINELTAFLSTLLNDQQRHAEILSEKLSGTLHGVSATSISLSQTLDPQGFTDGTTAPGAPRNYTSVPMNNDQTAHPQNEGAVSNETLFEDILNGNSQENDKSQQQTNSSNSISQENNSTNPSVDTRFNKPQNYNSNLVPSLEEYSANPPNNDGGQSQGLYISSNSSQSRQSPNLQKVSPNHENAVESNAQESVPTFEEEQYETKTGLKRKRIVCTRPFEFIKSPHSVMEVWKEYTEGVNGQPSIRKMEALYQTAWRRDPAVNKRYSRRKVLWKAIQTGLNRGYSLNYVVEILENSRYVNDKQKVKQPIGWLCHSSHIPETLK
Procedure: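 Universal 'all 10-mer' protein binding microarrays (Agilent AMADID 015681) probed with GST-tagged S. cerevisiae TFs (full-length or DBD) made by in vitro transcription/translation (PURExpress), about 100-200 nM. Bound TF was detected with fluorescent anti-GST. Each ungapped 8-mer (which stands for itself and its reverse complement) is scored by the PBM enrichment score (E-score), a modified Wilcoxon-Mann-Whitney statistic from -0.5 to +0.5, computed with the Universal PBM Analysis Suite. Scale: above 0.35 generally sequence-specific binding.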

Sequence | PBM E-score
AGTCCGAT | 0.224
AATCACAA | -0.159
GATTATAA | 0.116
ACTGGTCA | -0.0482
ATTGAGAG | -0.0651
AGCGGTAC | -0.0536
AAAGGATA | 0.21
AATCCCCT | -0.234
AATTAGTC | 0.272
GCCCAACA | -0.192
CAGTACAG | 0.0817
CAGGCTTC | -0.074
CAGTGCGA | -0.154
CCGAAGCC | -0.0272
AGCTGATG | 0.0519
CCGGACTC | 0.188
CAGTAGGG | -0.235
ACGTCCCC | -0.0571
AGTGTGAC | -0.0163
ATAGTCGG | -0.176
GGCGCGGA | -0.198
AGGGTACG | -0.183
ATCCTAGA | -0.0654
ACAGTAGA | 0.00665
AAGGCCTT | -0.0741

Sequence | PBM E-score
GCATCCAA | -0.225
ATGCGACC | 0.106
CGACTACC | -0.096
CTTGTTAC | -0.0242
ATGGTTAA | -0.0435
AGCAAGTG | -0.101
CATTCGGG | -0.0321
ATTGGAGG | -0.2
CCGTCTCA | -0.0674
GCGCGTCA | -0.0313
ACTAGCTC | -0.0442
CATGAAGG | -0.0363
AATTTATA | 0.233
CCGTCGCA | -0.0683
CAATACGG | -0.0563
ACGCGACT | -0.206
GCGTGGTA | 0.00084
ACGAGGAA | 0.101
GAATAAAC | 0.134
ATGCCAAT | -0.104
AGCGTCCC | -0.136
ATCACCTC | -0.145
GTAGGGGA | -0.237
CATCTTAG | 0.107
GTTTACCA | 0.0626

Sequence | PBM E-score
ATCGATAG | 0.1
ACTCCTGC | -0.23
AAGCAGAG | -0.0134
ACGCGACA | 0.256
GCACTTTA | 0.097
ATCTCGGG | 0.0394
GCAGACCA | -0.0683
CGCAAAAA | 0.173
CAAGAATC | 0.153
TGCTGACA | 0.125
ATCAACGA | 0.14
TATAATCA | 0.169
CAGGACAC | 0.407
AAATATAT | 0.306
AACAACCG | 0.0783
GCACGAAA | 0.126
GCGCTGTA | 0.012
ATTCGTGA | 0.0237
ACATTGCG | 0.201
AACACCCA | -0.147
ATCATATC | 0.233
GACAATGA | 0.169
GAGTGCCA | -0.239
ATAGAGAT | 0.0237
GCAGCCGA | -0.108

Sequence | PBM E-score
GCCAAGTA | -0.124
CGCTACTA | -0.0231
GGGGATAA | -0.0973
AAAGCAAC | 0.103
AACAGTCG | -0.033
TCTAGCCA | -0.0361
CCCTTCGC | -0.185
ACTCCGGG | 0.0267
AAATGTAT | 0.28
GGTCTTCA | -0.182
CAAGCCGA | 0.107
AAGCACAG | 0.0631
AACATTAT | 0.104
CAGATGTA | -0.0817
ACCCCACT | -0.126
CATATAAC | 0.147
CGGGTTCA | -0.02
ACAGTATG | 0.147
AGTCCACA | 0.17
CACTTCCA | -0.0388
AGCGCCTC | -0.194
AGTCGTGG | 0.0444
GAACAAAC | 0.181
ATACACAC | 0.0243
AACATCAC | 0.0812

Sequence | PBM E-score
GGAATCGA | -0.0979
TTACAGAA | 0.0602
GTATCACA | 0.109
CACGGTTA | 0.0138
CAAATTCC | 0.265
CCATAGAA | -0.0137
CAAAGGGA | -0.0316
TGCGTTAA | -0.0213
AGTACCAA | 0.175
CCGGGCCC | -0.103
AGCACGTC | 0.125
ACGGCGGA | -0.0934
CTTGACTC | -0.0921
ACTTACGG | 0.0817
ATGAGGCC | -0.333
GCTGTGGA | 0.0167
AAATGGCC | -0.0844
ACAGACGG | -0.138
AGCCGATA | -0.0688
GGTCTGAA | 0.0803
TGATCTAA | 0.00017
GTAGAAAA | 0.172
GAATCGCC | -0.293
TTGGTAAA | -0.0902
CCCGTGAA | 0.00561

Sequence | PBM E-score
AGGCTTCC | -0.0153
CGGATGTA | 0.0259
AGGAGGCA | -0.295
CATAGGTC | 0.0822
GGGCCCCA | -0.317
AGAAGCCC | -0.295
CGCAGACG | 0.0312
ATCCTGCA | 0.0555
AGTCCTCA | 0.202
CAAGTACG | 0.0164
ATTGAATG | 0.101
GACCGATC | -0.0571
AAGGTCCA | -0.0265
GTGTTGAA | -0.0141
CCGCGCAG | 0.108
CCGTATCG | -0.0414
GGGCCACA | -0.153
CCGTCGTC | -0.1
ATTCGCGC | 0.0908
CGCTTAAC | 0.132
CAGACGAG | -0.0297
CCCTACTC | -0.0505
AGTGACAC | 0.225
AATCTACA | 0.058
CCCCCTTA | -0.404

Sequence | PBM E-score
AGCTTGAC | -0.0883
GAATCACA | -0.123
AAAGCTCT | -0.114
AACCTATC | 0.0159
AGCGGAGG | -0.217
CTTGGCTC | -0.228
AGATACCG | 0.0533
ACGTAGGC | -0.0908
GGCGTTAC | -0.266
ACCTTAGG | -0.201
ACGAAGGG | -0.12
CCGTCACA | -0.121
TACTTTCA | 0.11
CTTACATA | -0.0116
CAATCGTC | 0.0432
CTAATCGA | 0.0391
ACTCTGAA | 0.0886
AATACCGA | 0.022
CGTGACTA | -0.054
CAATGCAG | -0.0326
CTTACAGA | 0.013
AGCGCAGC | -0.115
